Measured values reported in PubChem BioAssay AID504444 (National Center for Advancing Translational Sciences (NCATS), 2011).
Out of some 360,000 compounds screened, about 7,500 (2.1%) were called active. Not shown: some 20% with an inconclusive outcome. The call rests on the fitted dose curve; in most records, active means well fitted inhibition curve with a large enough effect; inconclusive means small, poorly fitted or top-dose-only effect, or effect the other way; inactive means flat fitted curve, though single readings scatter. The list shows a part of the results, in another mix than the full data. Some compounds were tested as several samples or in several runs, with calls that do not always agree.

Assay: Nrf2 qHTS screen for inhibitors; further: nearly all actives have a fitted effect of over 60% in size
Details: A549 ARE-Fluc reporter, luciferase luminescence, 18-24 h; series mostly up to 46 µM; activity change, negative = inhibition: at the top concentration
Method in brief: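 Reporter: ARE-Fluc in A549. Exposure: 18-24 h, 37 °C, 5% CO2, 5% FBS OPTI-MEM. Readouts: fluorescent cytotoxicity (CellTiter-Fluor), then luminescent Nrf2 signal after BugLite.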
On the % scale 0 is the no-effect control and ±100 the full control effect; potency means the concentration at half of the fitted maximal effect.

Compound	activity change, negative = inhibition	Potency
CCc1ccc(CNC(=O)C2CCN(c3nnc(C)c4c(C)n(-c5ccc(C)cc5)nc34)CC2)cc1	inactive: 40.3%	–
C[C@@H]1NC(=O)[C@@]2(C)[C@@H](c3ccccc3)[C@H]3COc4ccccc4[C@@H]3N2C1=O	inactive: 2.61%	–
O=C(COc1ccc([N+](=O)[O-])cc1)N1CCC(c2nc3ccccc3s2)CC1	–	active: 14.6 µM
O=C(Nc1nnc(S(=O)(=O)N2CCCCCC2)s1)c1ccccc1F	inactive: 12.8%	–
Cn1nc(C(=O)N2CCN(c3ccc(Cl)cc3)CC2)c2c1-c1ccccc1S(=O)(=O)C2	inactive: 10.9%	–
O=C(CCCN1C(=O)/C(=C/c2ccccc2Cl)SC1=S)NNC(=O)c1ccc(Cl)cc1	–	active: 8.2 µM
COC(=O)N1C(=O)[C@](c2ccccc2)(C(C)C)N1C(=O)OC	inactive: -16.5%	–
CCn1cnc2c(Nc3cc(F)cc(F)c3)nc(C#N)nc21	inactive: 5.56%	–
O=C(Cn1cc(C(=O)c2ccco2)c2ccccc21)Nc1ccccc1	inactive: -22.8%	–
COc1cccc(-n2c(C)nc3cc(C(=O)O)ccc32)c1	inactive: 3.59%	–
Cc1c(NC(=O)c2cc(-c3ccc(Br)cc3)on2)c(=O)n(-c2ccccc2)n1C	inactive: -10.5%	–
Cc1oc(-c2ccc(C(=O)Nc3cccc(C(F)(F)F)c3)cc2)nc1CSc1ccccc1	–	active: 5.8 µM
N#Cc1nc(NCC(F)F)c2ncn(-c3cccc(Cl)c3)c2n1	–	active: 20.6 µM
O=C(COc1ccccc1)N[C@@H]1c2ccccc2CC[C@@H]1OCc1ccccc1	inactive: -13.3%	–
CN(CC(=O)NCc1ccc(Cl)cc1)S(=O)(=O)c1ccc2[nH]c3c(c2c1)CCCC3	–	active: 16.4 µM
CCN(c1cccc(C)c1)S(=O)(=O)c1ccc(-n2cccn2)cc1	inactive: -11.5%	–
Cc1c(C(=O)N2CCCCC2)c(S(=O)(=O)NCc2ccc(N(C)C)cc2)c(C)n1C	inactive: -8.83%	–
Cc1cc(=O)n(C(C)C(=O)N2CCCc3ccccc32)c2c1c(C)nn2-c1ccccc1 (configuration not stated)	–	active: 18.4 µM
Cc1ccc2[nH]cc(S(=O)(=O)c3ccc(C)c(C)c3)c(=O)c2c1	inactive: 3.16%	–
O=C(COc1ccc(Cl)cc1)N1CCN(Cc2ccc3c(c2)OCO3)CC1	–	inactive
O=C(Nc1scc(-c2ccc(Br)cc2)c1C(=O)O)c1ccccc1F	–	active: 10.3 µM
CCOc1ccc(CNC(=O)CCC(=O)N2Cc3ccccc3Oc3ncccc32)cc1	inactive: -3.87%	–
O=C(CSc1nc(-c2ccco2)cc(C(F)(F)F)n1)Nc1ccc(C(=O)N2CCCCC2)cc1	–	active: 23.1 µM
Cc1ccc(Cl)cc1N1CCN(C(=O)CCS(=O)(=O)c2ccc3c(c2)NC(=O)CO3)CC1	–	active: 16.4 µM
Cc1cc(C(=O)Nc2c(C)cccc2C)n(-c2ccccc2)n1	inactive: 20.7%	–
CC(=O)Nc1ccc(S(=O)(=O)NCCSCc2ccc(Cl)cc2Cl)cc1	–	active: 9.2 µM

Compound	activity change, negative = inhibition	Potency
O=C(CCCN1C(=O)/C(=C/c2cccs2)SC1=S)NNC(=O)c1cccnc1	inactive: -12.5%	–
COc1ccc(/C=N/Nc2nc(C)cc(-c3ccccc3)n2)cc1OC	–	active: 23.1 µM
CN(C)c1nc(C#N)nc(N2CCOCC2)n1	inactive: -1.2%	–
COc1cc(C(CC(=O)N2CCCC2)c2c(OC)cc(OC)c3c(-c4ccccc4)cc(=O)oc23)cc(OC)c1OC (configuration not stated)	inactive: -7.07%	–
O=C(NNC(=O)c1nc2ccccc2[nH]1)OCc1ccccc1	inactive: 12%	–
CC(C)(C)Nc1nc(-c2ccccn2)nc2ccccc12	–	active: 20.6 µM
COc1ccc(Cl)cc1NC(=O)CCc1nc(-c2ccccc2F)no1	inactive: -18.1%	–
O=C1C2C3C=CC(C3)C2C(=O)N1CCN1CCN(Cc2ccc([N+](=O)[O-])cc2)CC1 (configuration not stated)	inactive: -18.5%	–
CCOC(=O)CNc1nc(Oc2ccc(=O)n(C)n2)nc(N(CC)CC)n1	inactive: -27.4%	–
O=C(COC(=O)Cc1ccc(S(=O)(=O)N2CCCCC2)s1)Nc1ccc2c(c1)OCO2	inactive: 8.49%	–
CCOc1ccccc1CNC(=O)C1CCN(c2nnc(C)c3c(C)n(-c4ccc(C)cc4)nc23)CC1	inactive: 20.9%	–
O=C1c2ccccc2C(=O)N1Cc1ccccn1	inactive: 6.15%	–
Cc1ccccc1SCC(=O)N1CCN(c2ccc(C(F)(F)F)cn2)CC1	–	active: 3.66 µM
Cc1ncc(CO)c2c1Oc1nc(-c3ccccc3)nc(SCC(=O)N3CCCCC3)c1C2	inactive: 3.75%	–
CCCCn1c(NC(=O)c2ccccc2Cl)c(C#N)c2nc3ccccc3nc21	–	active: 13 µM
CN(Cc1ccccc1)C(=O)c1ccc(NC(=O)Cc2ccc(NC(=O)C3CCCN(C(=O)CCc4ccccc4)C3)cc2)cc1 (configuration not stated)	–	active: 2.59 µM
Cc1cc(C)n2nc(SCC(=O)c3cc(C)n(CC4CCCO4)c3C)nc2n1 (configuration not stated)	–	active: 10.3 µM
CCN(CC)CCNC(=O)c1cc2c(-c3cccc(OC)c3)nn(C)c2s1	inactive: 26.2%	–
Cc1nn(C(C)C(=O)NCc2ccco2)c(=O)c2nn(-c3ccccc3)c(C)c12 (configuration not stated)	inactive: 10.9%	–
Cc1ccc(Cl)cc1N1CCN(C(=O)CN(C2CCCCC2)S(C)(=O)=O)CC1	–	active: 18.4 µM
CC(=O)c1c(C)[nH]c(C(=O)OCc2ccc(F)cc2Cl)c1C	–	active: 13 µM
O=C(NCc1ccccc1)C1=C[C@@H](c2ccccc2)C[C@@H](OCc2ccc(CO)cc2)O1	inactive: -18.6%	–
CC1Cc2cc(S(=O)(=O)CCC(=O)Nc3ccc(OC(F)(F)F)cc3)ccc2N1C(=O)C1CC1 (configuration not stated)	–	active: 23.1 µM
O=C(Nc1nnc(S(=O)(=O)N2CCOCC2)s1)c1cccc(F)c1	inactive: 22.4%	–
Cc1ccc(C)c(N2CCN(C(=O)CCCn3ncn4c(cc5occc54)c3=O)CC2)c1	inactive: -4.99%	–
COCCCNC(=O)CSc1nc(-c2cccc(F)c2)[nH]c1-c1ccccc1	–	active: 14.6 µM
